The list shows a part of the results.

For the test, the system named is HepG2. Kind of test: cytotoxicity call (relative viability < 0.9). Conditions: 10 µM.
For `CCOC(=O)N(C)C[C@@H]1OCc2cn(nn2)CCCC(=O)N([C@H](C)CO)C[C@H]1C`, the cytotoxicity call was “inactive”.

For `C=CCOC(=O)[C@@H]1[C@@H]2C=C[C@@]3(O2)[C@@H]1C(=O)N(CCCCCCO)[C@H]3C(=O)N(CC=C)Cc1ccccc1`, the cytotoxicity call was “active”.

Consider `Cn1[nH]c(=O)cc1C(F)(F)F`, for which the cytotoxicity call was “inactive”.

For the compound `C[C@@H]1O[C@@H](O[C@H]2[C@H](Oc3cc(O)c4c(=O)cc(-c5ccc(O)cc5)oc4c3)O[C@H](CO)[C@@H](O)[C@@H]2O)[C@H](O)[C@H](O)[C@H]1O`, the cytotoxicity call is “inactive”.

On to `O=C1CN2CCN3CCN([C@@H](CO)[C@@H](O)CO)CCN(CC2)CC(=O)[O][Gd]([O]1)[O]C(=O)C3`, for which the cytotoxicity call was “inactive”.

Consider `CC(=O)NCC(=O)N1CCOC[C@]2(CC[C@@H](Cn3cccn3)O2)C1`, for which the cytotoxicity call was “inactive”.

For `CO[C@@H]1[C@H](O)[C@@H](CO)O[C@H]1n1ccc(N)nc1=O`, the cytotoxicity call is “inactive”.

Turning to `C[C@@H]1CN([C@@H](C)CO)C(=O)c2cc(NC(=O)c3ccncc3)ccc2O[C@@H](C)CCCCO[C@H]1CN(C)C(=O)Nc1ccc2c(c1)OCO2`, the cytotoxicity call was “inactive”.

In the case of `C[C@@H]1CCCCO[C@@H](CN(C)Cc2ccncc2)[C@H](C)CN([C@@H](C)CO)C(=O)c2cc(NC(=O)Cc3ccccc3)ccc2O1`, the cytotoxicity call was “inactive”.

Turning to `C[C@@H]1CN([C@@H](C)CO)C(=O)c2cc(NC(=O)Nc3cccc4ccccc34)ccc2O[C@@H](C)CCCCO[C@@H]1CN(C)S(=O)(=O)c1ccccc1`, the cytotoxicity call was “inactive”.

With `C[C@H](CO)N1C[C@H](C)[C@H](CN(C)Cc2ccncc2)Oc2cc(C#CCN(C)C)ccc2S1(=O)=O`, the cytotoxicity call was “inactive”.

Turning to `O=C(CN1CCOCC1)N[C@H]1CC[C@@H](CCNC(=O)Nc2cc(F)ccc2F)O[C@H]1CO`, the cytotoxicity call is “inactive”.

Regarding `C[C@H]1CCCCO[C@@H](CN(C)Cc2ccc(C(F)(F)F)cc2)[C@@H](C)CN([C@@H](C)CO)C(=O)c2cc(NC(=O)c3ccncc3)ccc2O1`, the cytotoxicity call is “inactive”.

`C[N+]1(C)C[C@H](O)[C@H](C(=O)O)C1`: the cytotoxicity call was “active”.

Turning to `[O-][NH2+]N1CCCCCCC1`, the cytotoxicity call was “inactive”.

`C[C@H]1CN([C@@H](C)CO)C(=O)c2cccc(NC(=O)C3CC3)c2O[C@@H]1CN(C)Cc1ccc(C(=O)O)cc1`: the cytotoxicity call was “inactive”.

Consider `N#Cc1cn(C2CCCCC2)c(=O)[nH]c1=O`, for which the cytotoxicity call was “inactive”.

Consider `CN(C)CC(=O)N[C@H]1CC[C@@H](CCNC(=O)C2CC2)O[C@H]1CO`, for which the cytotoxicity call is “inactive”.

Consider `C[C@H](CO)N1C[C@H](C)[C@@H](CN(C)S(=O)(=O)c2ccccc2)Oc2ccc(NS(C)(=O)=O)cc2CC1=O`, for which the cytotoxicity call is “inactive”.

With `CC(C)(C)OC(=O)N1CC(C(=O)O)C1`, the cytotoxicity call is “inactive”.

`C[C@@H]1CN([C@@H](C)CO)S(=O)(=O)c2ccc(C#CC(C)(C)O)cc2O[C@H]1CN(C)Cc1ccncc1`: the cytotoxicity call was “inactive”.

`C[C@@H]1CN([C@H](C)CO)C(=O)Cc2cc(NC(=O)Cn3cnnn3)ccc2O[C@H]1CN(C)C(=O)Nc1ccccc1`: the cytotoxicity call was “inactive”.

`CCOc1ccc(NC2=NC(=O)/C(=C/c3cc(Br)c(OCc4ccccc4)c(OC)c3)S2)cc1`: the cytotoxicity call is “inactive”.

Take `CC1OC1P(=O)([O-])[O-].[Ca+2]` (stereo not given): the cytotoxicity call is “inactive”.

Regarding `C[C@@H]1CN([C@H](C)CO)C(=O)c2c(c3ccccc3n2C)-c2ccccc2CO[C@H]1CN(C)C(=O)NC1CCCCC1`, the cytotoxicity call is “inactive”.

For `CN(C)CCCNC(=O)C[C@H]1C=C[C@@H](NC(=O)Cc2cccnc2)[C@@H](CO)O1`, the cytotoxicity call is “inactive”.

For the compound `O=C(c1ccc(-n2cnnn2)cc1)N1CCN([C@H]2CCS(=O)(=O)C2)CC1`, the cytotoxicity call was “inactive”.

For `C[C@@H]1CN([C@H](C)CO)C(=O)c2cc(-c3cccc(C#N)c3)cnc2O[C@H]1CN(C)C(=O)c1cnccn1`, the cytotoxicity call is “inactive”.

As to `Cc1cc(C)c2[nH]c3ccccc3c2n1`, the cytotoxicity call is “active”.

`C[C@@H]1CN([C@@H](C)CO)C(=O)Cc2cc(NC(=O)Nc3ccc(C(F)(F)F)cc3)ccc2O[C@H]1CN(C)S(=O)(=O)c1ccc(Cl)cc1`: the cytotoxicity call was “inactive”.

For `C[C@H]1CN([C@@H](C)CO)C(=O)Cc2cc(NC(=O)Nc3cccc(C(F)(F)F)c3)ccc2O[C@H]1CN(C)S(=O)(=O)c1ccc(Cl)cc1`, the cytotoxicity call was “active”.

Take `O=C(O)C[C@](O)(CC(=O)[O][Bi]1[O]C(=O)C[C@@](O)(CC(=O)O)C(=O)[O]1)C(=O)O`: the cytotoxicity call is “inactive”.

Regarding `C[C@@H]1CCCCO[C@@H](CN(C)C(=O)CCCN(C)C)[C@@H](C)CN([C@@H](C)CO)C(=O)c2cc(NC(=O)Nc3ccc(C(F)(F)F)cc3)ccc2O1`, the cytotoxicity call is “inactive”.

Take `Cc1c(C(=O)Nc2ccc(Oc3ccnc4cc(OCC(C)(C)O)ccc34)c(F)c2)c(=O)n(-c2ccccc2)n1C`: the cytotoxicity call was “inactive”.

As to `COc1ccc2c3c(n(c2c1)C)[C@H](CO)N(C[C@]13CN(C1)C(=O)Nc1cccc(c1)F)C(=O)CN1CCOCC1`, the cytotoxicity call is “inactive”.

With `C[C@H]1CN([C@@H](C)CO)C(=O)c2cc(NS(C)(=O)=O)ccc2O[C@@H]1CN(C)S(=O)(=O)c1ccc(F)cc1`, the cytotoxicity call was “inactive”.

Consider `NS(=O)(=O)c1cc(C(=O)O)c(NCc2ccco2)cc1Cl`, for which the cytotoxicity call was “inactive”.

For the compound `C[C@@H]1CCCCO[C@@H](CN(C)C(=O)Nc2ccc(C(F)(F)F)cc2)[C@@H](C)CN([C@H](C)CO)C(=O)c2cc(NC(=O)c3ccccc3)ccc2O1`, the cytotoxicity call was “inactive”.

For the compound `NCCCCCNC(=O)[C@@H]1C[C@@H]2C(=O)N[C@@H](Cc3ccccc3)C(=O)N2[C@@H]1c1cccc(OCCO)c1`, the cytotoxicity call was “inactive”.

As to `CN1CCc2c(c3ccccc3n2Cc2ccccc2)C1`, the cytotoxicity call was “active”.

Values taken from the antibiotic and cytotoxicity screens of Wong et al. (2023).
